Reference: paper PMC4336329 (PLoS ONE, 2015)
Among all 310,000 compounds or so, about 14,000 (4.5%) showed an effect of 50% or more. Effects have a minus sign here. The list shows a part of the results.
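Note: peak tail current of the secondary pulse compared with the same well before compound.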

What follows are compounds tested against human ether-à-go-go-related gene (hERG) potassium channel (human, UniProt Q12809) (assay: primary screen, population patch clamp on CHO cells stably expressing hERG).
Sequence of human ether-à-go-go-related gene (hERG) potassium channel (Q12809 whole entry, looked up): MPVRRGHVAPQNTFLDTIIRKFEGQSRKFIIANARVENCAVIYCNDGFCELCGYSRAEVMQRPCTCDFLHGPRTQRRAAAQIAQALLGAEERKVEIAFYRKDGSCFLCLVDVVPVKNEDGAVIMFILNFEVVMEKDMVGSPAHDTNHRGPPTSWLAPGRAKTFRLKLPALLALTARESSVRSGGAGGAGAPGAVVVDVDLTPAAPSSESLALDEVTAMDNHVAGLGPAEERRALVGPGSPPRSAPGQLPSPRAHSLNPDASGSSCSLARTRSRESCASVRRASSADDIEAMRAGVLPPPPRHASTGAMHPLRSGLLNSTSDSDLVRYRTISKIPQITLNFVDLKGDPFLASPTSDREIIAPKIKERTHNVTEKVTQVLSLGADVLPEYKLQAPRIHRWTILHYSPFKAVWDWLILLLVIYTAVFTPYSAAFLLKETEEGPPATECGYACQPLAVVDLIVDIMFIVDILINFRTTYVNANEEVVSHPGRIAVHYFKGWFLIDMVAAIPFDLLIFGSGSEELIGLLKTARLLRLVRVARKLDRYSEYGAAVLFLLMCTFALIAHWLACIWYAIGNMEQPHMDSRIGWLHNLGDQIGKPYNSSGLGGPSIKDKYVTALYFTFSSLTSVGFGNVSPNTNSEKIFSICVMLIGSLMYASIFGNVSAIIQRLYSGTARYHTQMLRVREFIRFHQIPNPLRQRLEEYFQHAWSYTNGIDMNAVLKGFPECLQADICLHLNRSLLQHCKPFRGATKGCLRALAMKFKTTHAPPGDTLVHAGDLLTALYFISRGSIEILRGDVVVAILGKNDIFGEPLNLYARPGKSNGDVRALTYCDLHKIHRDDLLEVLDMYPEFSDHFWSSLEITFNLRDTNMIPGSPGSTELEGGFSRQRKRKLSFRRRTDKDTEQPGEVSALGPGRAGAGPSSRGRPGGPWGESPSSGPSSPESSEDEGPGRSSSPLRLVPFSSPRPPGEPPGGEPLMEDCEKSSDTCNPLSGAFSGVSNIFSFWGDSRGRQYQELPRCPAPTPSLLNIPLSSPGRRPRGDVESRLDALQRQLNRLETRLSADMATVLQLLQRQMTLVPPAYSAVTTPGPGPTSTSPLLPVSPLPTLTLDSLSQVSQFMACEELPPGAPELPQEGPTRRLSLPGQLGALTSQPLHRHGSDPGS
CCc1cccc(NC(=O)Cn2ncn3c(cc4ccccc43)c2=O)c1 was tested, and the “hERG current change (%, negative = inhibition) at 10uM” value was -2.08%. With COc1ccc(C(CC(=O)Nc2ccccn2)N2Cc3ccccc3C2=O)cc1OC (centres unmarked) the “hERG current change (%, negative = inhibition) at 10uM” value was -13.4%. In the case of CC(C)c1c(C(=O)N/N=C/c2ccccc2OCc2c(F)cccc2Cl)nnn1-c1nonc1N, the “hERG current change (%, negative = inhibition) at 10uM” value is reported as 13.6%. With COC(=O)c1ccccc1NC(=O)CCS(=O)(=O)c1cc2c(cc1C)NC(=O)CO2 the “hERG current change (%, negative = inhibition) at 10uM” value was -48.8%. For COc1ccc(-n2c(SCC(=O)Nc3cccc(S(N)(=O)=O)c3)nc3ccccc3c2=O)cc1OC, the “hERG current change (%, negative = inhibition) at 10uM” value was 9.06%. In the case of C/C(=N\NS(=O)(=O)c1ccc([N+](=O)[O-])cc1)c1ccc2c(c1)OCO2, the “hERG current change (%, negative = inhibition) at 10uM” value is reported as 9.41%. With CCN(CC)c1ccc(NC(=O)CSc2nnc3nc(C)cc(C)n23)cc1 the “hERG current change (%, negative = inhibition) at 10uM” value was -0.579%. COc1cc(C(=O)OCc2cc(=O)oc3c(C)c(C)ccc23)ccc1OC(F)F was tested, and the “hERG current change (%, negative = inhibition) at 10uM” value was 9.13%. For CC(C)CC(=O)Nc1ccc2c3c(cccc13)CC2, the “hERG current change (%, negative = inhibition) at 10uM” value was -6.07%. In the case of CC1(C)Cc2c(c(N3CCOCC3)nc3snc(Br)c23)CO1, the “hERG current change (%, negative = inhibition) at 10uM” value is reported as -6.09%. COC(=O)CCC(=O)OC1(C)C(=O)C=C2C=C(C3CC3)N(Cc3ccc4c(c3)OCO4)C=C2C1=O (centres unmarked) was tested, and the “hERG current change (%, negative = inhibition) at 10uM” value was 10.8%. In the case of COC(=O)COc1ccc2oc(=O)cc(-c3cc4cccc(OC)c4o3)c2c1, the “hERG current change (%, negative = inhibition) at 10uM” value is reported as 21.5%. For O=C(COC(=O)Cc1cccc(C(F)(F)F)c1)NC1CCS(=O)(=O)C1 (centres unmarked), the “hERG current change (%, negative = inhibition) at 10uM” value was -7.29%. O=C(COc1ccccc1)Nn1cnc2ccccc21 was tested, and the “hERG current change (%, negative = inhibition) at 10uM” value was -0.626%. Nc1cc([N+](=O)[O-])ccc1Nc1ccccc1 was tested, and the “hERG current change (%, negative = inhibition) at 10uM” value was 6.06%. With CCOC(=O)c1cnc(SCC(=O)Nc2sc(C)c(C)c2C#N)nc1N the “hERG current change (%, negative = inhibition) at 10uM” value was 14.2%. With Cc1noc(C)c1CSCC(=O)N(C)CC(=O)Nc1ccc(Cl)cc1 the “hERG current change (%, negative = inhibition) at 10uM” value was 13.9%. With CCOC(=O)c1[nH]c(C)c(CN(CCc2ccccc2)S(C)(=O)=O)c1C the “hERG current change (%, negative = inhibition) at 10uM” value was -0.689%. CC(=O)Nc1ccc(S(=O)(=O)N2CCSC2c2ccccc2)cc1 (centres unmarked) was tested, and the “hERG current change (%, negative = inhibition) at 10uM” value was 10.9%. For COCC(C)NCc1ccc(OC)c(Br)c1.O=C(O)C(=O)O (centres unmarked), the “hERG current change (%, negative = inhibition) at 10uM” value was 1.95%. With COc1ccccc1N1CCN(S(=O)(=O)c2cc3c(cc2C)NC(=O)CO3)CC1 the “hERG current change (%, negative = inhibition) at 10uM” value was -21.4%. In the case of COC(=O)c1cc(OC)c(OC)cc1NC(=O)Cc1ccccc1[N+](=O)[O-], the “hERG current change (%, negative = inhibition) at 10uM” value is reported as 2.28%. With Cc1cccc(NC(=O)CSc2ncnc3nc[nH]c23)c1C the “hERG current change (%, negative = inhibition) at 10uM” value was -0.223%.
